The results in this text go back to publication PMC11267001, “RhoG facilitates a conformational transition in the guanine nucleotide exchange factor complex DOCK5/ELMO1 to an open state” (The Journal of Biological Chemistry, 2024).

This data set deals with the molecule itself. Description: cryo-EM structure; DOCK5^FL/ELMO1^FL cross-linked with 1 mM BS3 (also a not cross-linked sample at 7.3 Å); 20 mM HEPES-NaOH pH 8.0, 300 mM NaCl, 1 mM TCEP, 0.06% digitonin.

B1: human full-length DOCK5 (DOCK5^FL, […]) (natural protein)
chain: not shown
For the protein B1, the binding result is recorded as “binds”.
